Data: PubChem BioAssay AID485344 (National Center for Advancing Translational Sciences (NCATS), 2010)
The campaign covered roughly 340,000 compounds. About 6,900 (2%) were called active. Cut-off read from the data, not from the text of the source: active = inhibition above about 30%; inactive = below that, where a call was filed. Only a part is listed here, and it is no random draw. Entries without a call were filed so in the source.
Note: 0% is about no effect.

Each compound was assayed against D(2) dopamine receptor (Homo sapiens) (UniProt P14416) (assay: HTS Assay for Allosteric Antagonists of the Human D2 Dopamine Receptor: Primary Screen for Antagonists). Conditions: HEK293 TREx D2 cells, calcium flux, dopamine EC80; at 10 µM; stronger effect = higher value.
Sequence of UniProt P14416 (P14416 whole entry, looked up): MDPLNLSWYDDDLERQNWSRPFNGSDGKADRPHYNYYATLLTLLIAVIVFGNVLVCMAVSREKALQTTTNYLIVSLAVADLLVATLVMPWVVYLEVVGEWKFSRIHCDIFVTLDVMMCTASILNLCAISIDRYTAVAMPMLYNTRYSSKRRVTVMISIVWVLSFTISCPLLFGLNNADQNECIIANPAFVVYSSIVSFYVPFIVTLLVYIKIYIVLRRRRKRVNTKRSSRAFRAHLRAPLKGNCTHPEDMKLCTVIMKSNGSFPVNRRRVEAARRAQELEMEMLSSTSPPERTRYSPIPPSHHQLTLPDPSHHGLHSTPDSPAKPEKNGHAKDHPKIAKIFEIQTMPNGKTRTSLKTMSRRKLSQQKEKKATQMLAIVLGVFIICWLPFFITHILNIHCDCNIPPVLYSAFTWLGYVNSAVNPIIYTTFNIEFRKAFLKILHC
How it was run: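 Tetracycline-induced HEK293 TREx cells expressing D2 receptor forced-coupled to calcium signalling, loaded with no-wash calcium dye. Compounds added and calcium flux read 180 s, then dopamine added at EC80 and read a further 180 s.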
For `COc1ccc(C(=O)NC2CC3CCCC(C2)N3Cc2ccccc2)cc1` (configuration not stated), the inhibition was active: 82.3%.
In the case of `O=C(Cc1ccc(NC(=O)N2CCCCc3ccccc32)cc1)NCc1cccc(Br)c1`, the inhibition is reported as 3.25%.
Work on `COc1ccc(Cl)cc1NC(=O)Cn1c(=O)n(-c2ccc(C)cc2)c(=O)c2ccc(C(=O)NCc3ccccc3Cl)cc21` yielded an inhibition of -12%.
`COc1ccccc1CNC(=O)Cc1c(C)c2cc3c(C)coc3c(C)c2oc1=O` showed an inhibition of 28%.
`CCOc1ccc(CCNC(=O)C2Cc3ccccc3N2C(=O)CC)cc1` (configuration not stated) was tested, and the inhibition was 6.14%.
Compound `Cc1ccccc1Cn1c(=O)n(Cc2ccco2)c(=O)c2sc3ccccc3c21` has an inhibition of 9.46%.
`COc1ccc(CNC(=O)CC(C)CC2=NS(=O)(=O)c3ccccc3N2)cc1` (configuration not stated) was tested, and the inhibition was -7.73%.
Compound `CCN(CC)C(=O)C1=C(C)Nc2nc3ccccc3n2C1c1ccccc1F` (configuration not stated) has an inhibition of 8.61%.
`CCC(=O)N1CCc2cc(CNC(=O)Nc3cc(OC)c(OC)c(OC)c3)ccc21` gave an inhibition of 19.4%.
Compound `CCOC(=O)c1cc2c(=O)n3ccccc3nc2n(CCCOC)c1=NC(=O)c1c(-c2c(F)cccc2Cl)noc1C` has an inhibition of -12.8%.
`Cc1nc2c(c(C)nn2-c2ccccc2)c(C)c1CCC(=O)Nc1ccccc1` gave an inhibition of 5.34%.
`O=C(Nc1ccc(S(=O)(=O)N(Cc2ccccc2)c2ccccc2)cc1)c1ccccc1F` showed an inhibition of 15.2%.
Compound `CCCn1ccc2c(OCC(=O)Nc3ccccc3C(=O)OCC)cccc2c1=O` has an inhibition of -3.58%.
Compound `COC(=O)c1ccccc1NC(=O)CCCn1c(C)c2cnn(-c3ccccc3)c(=O)c2c1C` has an inhibition of -1.85%.
In the case of `O=C(Nc1cccnc1)c1cc(-c2ccc(Cl)cc2Cl)on1`, the inhibition is reported as active: 34.8%.
`CC(=O)c1ccc(NC(=O)[C@@H]2CCCN2C2=NS(=O)(=O)c3ccccc32)cc1` was tested, and the inhibition was active: 37.2%.
Work on `Cc1ccccc1Cn1c(SCc2ccc(C(=O)N3CCCCC3)cc2)nc2ccncc21` yielded an inhibition of -9.07%.
`CCCOc1ccc(OC(=O)c2ccc(-c3ccc(CCC)cn3)cc2)cc1` was tested, and the inhibition was -9.42%.
For `COc1cc(NC(=O)CCNC(=O)Cn2ccc3ccccc3c2=O)cc(OC)c1OC`, the inhibition was 0.352%.
`C=CCNc1nc(C(=O)OCC(=O)Nc2c(Cl)cccc2C(F)(F)F)cs1` was tested, and the inhibition was active: 36.3%.
`O=C1CCc2cc(S(=O)(=O)NCc3ccccc3)cc3c2N1CC3` was tested, and the inhibition was 6.93%.
For `COc1ccc(CCNC(=O)c2cc(Nc3ccccc3)nc3ccccc23)cc1OC`, the inhibition was 0.397%.
`CCn1c(C(=O)Nc2ccccc2C(=O)OC)cc2sc(Cl)cc21` was tested, and the inhibition was 2.62%.
With `COC(=O)c1c(NC(=O)CCCOc2ccc(C)cc2)sc2c1CCCC2` the inhibition was 3.27%.
With `OC(COc1ccccc1)CN1CCN(CC(O)COc2ccccc2)CC1` (configuration not stated) the inhibition was active: 30.5%.
For `CCOc1ccc(C(=O)N2CCc3cc(OC)c(OC)cc3C2COc2ccc3c(C)cc(=O)oc3c2)cc1OCC` (configuration not stated), the inhibition was -4.09%.
For `CCOc1ccc(CNC(=O)CCCn2c(=O)c3cccn3c3cccnc32)cc1`, the inhibition was 22.7%.
Work on `CC(=O)c1ccc(NC(=O)C2CCN(S(=O)(=O)c3c(C)noc3/C=C/c3ccc(C)cc3)CC2)cc1` yielded an inhibition of -6.29%.
`Oc1ccccc1-c1nc2cnccn2c1Nc1ccc(Cl)cc1` showed an inhibition of 1.23%.
With `COc1ccc(CNC(=O)CN2C(=O)COc3ccccc32)c(OC)c1` the inhibition was 6.05%.
Work on `Cc1ccc2nc(NC(=O)CSc3cc(C)[nH]c(=O)n3)sc2c1` yielded an inhibition of 2.73%.
`CCCCn1c(S(=O)(=O)O)nc2ccccc21` was tested, and the inhibition was active: 33.1%.
In the case of `CC1CC(C)CN(CCOc2cccc(Cl)c2Cl)C1` (configuration not stated), the inhibition is reported as active: 86.4%.
In the case of `COc1ccc(-c2nn3c(-c4ccccc4)nnc3c3ccccc23)cc1`, the inhibition is reported as 2.77%.
Work on `CC(=O)c1cccc(NC(=O)CCn2nc(C)c(S(=O)(=O)N3CCCCC3)c2C)c1` yielded an inhibition of -11.8%.
With `O=C(NCCc1ccc(Cl)cc1)c1cnc2sc(N3CCCC3)nn2c1=O` the inhibition was 13.2%.
In the case of `Cc1ccc(OCC(=O)NCC(=O)OCc2cc(=O)n3nc(CC(C)C)sc3n2)cc1`, the inhibition is reported as 5.88%.
With `CCc1ccccc1NC(=O)C1CCCN(S(=O)(=O)c2ccc3[nH]c(=O)ccc3c2)C1` (configuration not stated) the inhibition was 14.8%.
Compound `Cc1ccc2oc(=O)c3cnn(CC(=O)N4CCN(c5cccc(Cl)c5)CC4)c3c2c1` has an inhibition of -7.03%.
With `CCOC(=O)c1[nH]c(C)c(CCC(=O)N2CCN(c3cc(C)ccc3C)CC2)c1C` the inhibition was -5.71%.
With `CCOc1ccc(OCC)c(NC(=O)CN(C)S(=O)(=O)c2ccc3[nH]c(=O)oc3c2)c1` the inhibition was 3.04%.
For `Cc1ccc(NC(=O)c2nc(S(=O)(=O)Cc3ccc(F)cc3)ncc2Cl)cc1C`, the inhibition was 24.6%.
For `Cc1cccc(C(=O)Nc2ccc3nc(SCC(=O)N4CCCC4)sc3c2)c1`, the inhibition was 1.75%.
Work on `O=C(CSc1nc(=O)[nH]c2c1CCC2)Nc1cc(C(F)(F)F)ccc1Cl` yielded an inhibition of 14.4%.
With `Cc1cc(C(=O)NCCc2ccc(Cl)cc2)c2c(C)nn(-c3ccccc3)c2n1` the inhibition was 8.53%.
Work on `COc1cc(CNC(=O)c2ccc(NC(=O)N3CCCCc4ccccc43)cc2)cc(OC)c1OC` yielded an inhibition of -0.509%.
`COc1ccc(-c2n[nH]c3c2C(c2ccccn2)N(C)C3=O)cc1` (configuration not stated) was tested, and the inhibition was -16.5%.
`COc1ccc(-n2nc3c(N4CCC(C(=O)NC5CCCCC5)CC4)nnc(C)c3c2C)cc1` gave an inhibition of 3.3%.
`CC(C)CCN1CCN(Cc2cn[nH]c2C2CCCCC2)CC1CCO` (configuration not stated) was tested, and the inhibition was active: 56.2%.
Compound `COc1ccc(OC)c(CCNC(=O)CCCn2c(=O)c3cccn3c3cccnc32)c1` has an inhibition of 26.6%.
`CCOc1ccc(CNS(=O)(=O)c2ccc3c(c2)CC(C)N3C(C)=O)cc1OC` (configuration not stated) was tested, and the inhibition was -8.28%.
`O=C(NCc1ccccc1)c1ccc(CS(=O)(=O)c2c(Cl)cccc2Cl)o1` gave an inhibition of 2.69%.
Work on `COc1ccc(N2CCN(C(=O)CSc3nc(-c4ccccc4)no3)CC2)cc1` yielded an inhibition of -12.5%.
Compound `Cc1ccc(NC(=O)Cn2nc(C)c3nn(-c4ccc(Cl)cc4)c(C)c3c2=O)cc1F` has an inhibition of 3.16%.
`COC(=O)c1ccc(NC(=O)CSc2nnnn2C2CCCCC2)cc1` was tested, and the inhibition was active: 41.7%.
For `COc1ccc(CNC(=O)c2cnn(-c3ccccc3)c2-n2cccc2)cc1OC`, the inhibition was -8.98%.
For `CCN(CC)CCN(C(=O)c1ccco1)c1nc2ccc(F)cc2s1`, the inhibition was -20.7%.
Compound `Cc1ccc(-c2nnc(SCC(=O)NCc3ccccc3)o2)cc1` has an inhibition of 3.33%.
In the case of `O=C(CN1CCN(c2ccccc2)CC1)Nc1ccc2c(c1)OCCO2`, the inhibition is reported as active: 45.2%.
With `CCOC(=O)c1c(NC(=O)CSc2ncn[nH]2)sc(C)c1C` the inhibition was active: 38.1%.
In the case of `CC1=C(c2ccc(C)c(C)c2)S(=O)(=O)N=C1N1CCC(C(=O)NCc2ccc(N(C)C)cc2)CC1`, the inhibition is reported as 1.71%.
In the case of `Nc1c(-c2nc(-c3ccccc3Cl)no2)nnn1-c1ccccc1C(F)(F)F`, the inhibition is reported as 15.1%.
`COc1ccccc1NC(=O)N1CCN(c2nnc(C)c3c(C)n(-c4ccccc4)nc23)CC1` gave an inhibition of -0.846%.
In the case of `O=c1c2oc3ccccc3c2n(Cc2ccccc2F)c(=O)n1Cc1ccc2c(c1)OCO2`, the inhibition is reported as -2.85%.
With `CCN(CC)S(=O)(=O)c1ccc(NC(=O)c2c(C)oc3ncnc(N4CCCCC4)c23)cc1` the inhibition was 2.47%.
`Cc1ccc(C)c(N2CCN(S(=O)(=O)c3cc(C(=O)Nc4ccccc4C(F)(F)F)ccc3F)CC2)c1` was tested, and the inhibition was -5.24%.
Work on `CC(Oc1ccccc1)C(=O)Nc1c(C(=O)Nc2cccc(F)c2)oc2ccccc12` (configuration not stated) yielded an inhibition of -11.9%.
`CCc1ccc(S(=O)(=O)Nc2cc3c(cc2C)n(C)c(=O)c(=O)n3C)cc1` showed an inhibition of -10.5%.
With `Cc1cc(NC(=O)Cn2c(=O)oc3ccccc32)no1` the inhibition was active: 32.7%.
In the case of `CCOC(=O)c1c(NC(=O)COc2ccc(Cl)cc2Cl)sc2c1CCCCC2`, the inhibition is reported as -5.14%.
`CN(C)c1ccc(CNC(=O)Cn2c(-c3cccs3)cc3cc(Cl)ccc32)cc1` gave an inhibition of 3%.
Work on `CCCC(=O)N1c2ccccc2-c2nnc(SC)nc2OC1c1sccc1C` (configuration not stated) yielded an inhibition of -18.8%.
In the case of `COc1ccc(S(=O)(=O)N2CCC(n3c(C)nc4cccnc43)CC2)cc1Cl`, the inhibition is reported as 1.85%.
In the case of `COc1nc2ccccc2nc1N1CCN(Cc2ccc3c(c2)OCO3)CC1`, the inhibition is reported as active: 51%.
For `COC(=O)CNC(=O)c1cccs1`, the inhibition was active: 65.9%.
For `COc1ccccc1NC(=O)CCS(=O)(=O)c1ccc2c(c1)oc(=O)n2C`, the inhibition was active: 31.5%.
With `COc1cccc(-c2cc(C(=O)NCc3ccc(F)cc3)no2)c1` the inhibition was 28.3%.
In the case of `COc1cccc(-c2cc(C(F)(F)F)n3ncc(C(=O)N4CCc5ccccc5C4)c3n2)c1`, the inhibition is reported as active: 50%.
With `COc1cccc(CNC(=O)CCn2cnc3ccccc3c2=O)c1` the inhibition was 3.45%.
Compound `O=C(CCN1C(=O)c2ccccc2Sc2ncccc21)Nc1ccc(F)cc1` has an inhibition of 0.112%.
Compound `CC(CCc1ccccc1)NC(=O)Cn1ncc2c3ccccc3n(Cc3ccccc3)c2c1=O` (configuration not stated) has an inhibition of 0.0771%.
`CCCCOc1ccccc1C1CC(=O)Nc2cc(C)c(C)cc21` (configuration not stated) showed an inhibition of -11.1%.
For `COc1ccc(-c2nnc(SCC(=O)Nc3c(C)cccc3C)nc2-c2ccc(OC)cc2)cc1`, the inhibition was -18.6%.
For `CNc1nc(C)nc(N/N=C/c2ccccc2)n1`, the inhibition was active: 42.4%.
Compound `CC(C)CNc1ncnc2onc(-c3ccc(Cl)cc3)c12` has an inhibition of 7.4%.
In the case of `CCOC(=O)c1ccc(NC(=O)c2oc3c(c2C)-c2nn(Cc4ccccc4Cl)cc2CC3)cc1`, the inhibition is reported as 5.41%.
For `COc1cc(C(=O)NCCc2sc(-c3cccc(F)c3)nc2C)cc(OC)c1OC`, the inhibition was 7.25%.
`Cc1nc2cc(-c3cccc(F)c3)nn2c(C)c1CCC(=O)NC(C)c1ccccc1` (configuration not stated) gave an inhibition of 3.57%.
`O=C(Nc1ccccc1Br)c1cc(CN2CCCC2)on1` gave an inhibition of 15.7%.
For `O=C(O)[C@H]1CCCC[C@H]1C(=O)NCCc1ccccc1`, the inhibition was active: 44.8%.
With `COc1cc2c(cc1NC(=O)c1ccccc1C)n(C)c(=O)n2C` the inhibition was -9.83%.
With `COC(=O)c1c(NC(=O)C2c3ccccc3Oc3ccccc32)sc2c1CCC(C(C)(C)C)C2` (configuration not stated) the inhibition was -11%.
With `CCOC(=O)N1CCC(NC(=O)CCS(=O)(=O)c2ccc3c(c2)CCN3C(=O)CC)CC1` the inhibition was active: 73.2%.
For `CCc1ccc(CNC(=O)c2ccc(-c3nc(CSc4ccc(C)cc4)c(C)o3)cc2)cc1`, the inhibition was 5.2%.
With `CCSc1nnc(NC(=O)c2cc(=O)c3cc(C)ccc3o2)s1` the inhibition was -7.19%.
`O=C(CSc1oc(-c2ccc(F)cc2)nc1S(=O)(=O)c1ccccc1)NC1CCCCC1` gave an inhibition of -2.17%.
For `CCOc1ccc(S(=O)(=O)N2CCN(Cc3nc4ccc(C)cc4o3)CC2)cc1`, the inhibition was 18.9%.
